Assay results reported in PubChem BioAssay AID1240 (Sanford-Burnham Center for Chemical Genomics, 2008).
Out of some 50,000 compounds screened, about 800 (1.6%) showed an effect of 50% or more. This is one part of the list.

molecular target: Bcl-2-like protein 10 (Homo sapiens) (UniProt Q9HD36); test: Phenotype converters, Bcl-B/TR3 peptide binding displacement, primary biochemical FP (AID 1240); conditions: GST-Bcl-B / FITC-TR3 peptide fluorescence polarization; stronger effect = higher value; compound at 3.75 mg/L;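 further: 0% = Bcl-B with tracer peptide and DMSO and 100% = tracer peptide lacking Bcl-B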
Sequence of UniProt Q9HD36 (Q9HD36 whole entry, looked up): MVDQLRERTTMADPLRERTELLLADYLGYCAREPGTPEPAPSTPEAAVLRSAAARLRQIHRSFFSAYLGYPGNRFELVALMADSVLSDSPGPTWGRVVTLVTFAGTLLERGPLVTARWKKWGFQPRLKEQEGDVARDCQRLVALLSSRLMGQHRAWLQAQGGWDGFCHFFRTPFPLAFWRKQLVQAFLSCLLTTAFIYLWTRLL

First: CC1=NN(c2ccc(S(N)(=O)=O)cc2)C(=O)/C1=C\c1ccc(-c2ccc(Cl)c(C(=O)OC(C)C)c2)o1
Second: CCOC(=O)c1ccc(NC(=O)CN(c2ccc(C)cc2)S(=O)(=O)c2ccc(OCC)cc2)cc1
The displacement of the first is lower: 1.3% for the first, 9.9% for the second.

First: O=C(Nc1ccc(Br)cc1)C1CCCN1C(=O)OCc1ccccc1 (configuration not stated)
Second: O=C(CSCc1ccc(F)cc1)Nc1ccccc1
The displacement of the first is lower: 5.7% for the first, 16.1% for the second.

Going from `CCOC(=O)c1c(N)sc(C(=O)N2CCc3ccccc3C2)c1C` to `CCOC(=O)CSc1nc2sc3c(c2c(=O)n1-c1ccccc1C)CCc1ccccc1-3`, the displacement falls from 17.6% to -6.6%.

Compared with `Cc1ccc(C2Nc3ccc(C(=O)c4ccccc4)cc3NC3=C2C(=O)CC(C)(C)C3)o1` (configuration not stated), `COC(=O)c1cccc(N2C(=O)c3ccc(C(=O)c4cccc([N+](=O)[O-])c4)cc3C2=O)c1` is lower in displacement: 17.6% for the first, 7.1% for the second.

First: CCOC(=O)C(=O)Nc1ccc(OC)c(Cl)c1
Second: CC(C)=C1C2CCC1C(C(=O)Nc1ccc(C)c(Cl)c1)C2C(=O)O (configuration not stated)
The displacement of the first is higher: -4.3% for the first, -5.8% for the second.

Compared with `COc1ccc(S(=O)(=O)N/N=C/c2cc3c(cc2Br)OCO3)cc1`, `O=C(/C=C/c1cc2c(cc1Br)OCO2)c1cccs1` is lower in displacement: -10.4% for the first, -21.6% for the second.

First: CC1(c2cccs2)CC(c2cccs2)=C(C#N)C(=O)N1 (configuration not stated)
Second: Cc1cccc(NC(=O)CC2S/C(=N\N=C\c3cccs3)NC2=O)c1C (configuration not stated)
The displacement of the first is higher: 21.4% for the first, 7% for the second.

Compared with `COc1ccc(C(=O)Oc2cccc3c(OC)ccc(C=O)c23)cc1OC`, `COc1ccc(-c2cc(-c3ccc(OC)c(OC)c3)n[nH]2)c(O)c1` is higher in displacement: -8.1% for the first, 11.7% for the second.

First: Cc1ccc(C)c(NC(=O)CCCCCCCCCCC2CCCO2)c1 (configuration not stated)
Second: CCCC(=O)Nc1ccc(Cl)cc1C(=O)O
The displacement of the first is lower: -3.3% for the first, 10.7% for the second.

Compared with `CCN(CC)c1ccc(NC(=O)c2ccccc2[N+](=O)[O-])cc1`, `Cc1ccc(C(=O)Nc2ccc(I)cc2)cc1[N+](=O)[O-]` is higher in displacement: -6.6% for the first, 10.8% for the second.

First: O=C(Oc1ccc(/C=N/NS(=O)(=O)c2ccc(Cl)cc2)cc1)c1ccco1
Second: CC(=O)N(c1ccccc1)S(=O)(=O)c1ccc(Cl)cc1
The displacement of the first is lower: 6.4% for the first, 10.5% for the second.

Compared with `CCOC(=O)C1=C(C)N=c2s/c(=C\c3cccc(OC)c3O)c(=O)n2C1c1ccc(OC)cc1` (configuration not stated), `CCOC(=O)C1=C(C)NC(=S)NC1c1ccc(OC(=O)c2ccco2)c(OC)c1` (configuration not stated) is higher in displacement: 9.8% for the first, 10.8% for the second.

First: C=CCc1cccc2cc(C(=O)Nc3ccc(NC(C)=O)cc3)c(=O)oc12
Second: CC(=O)c1ccc(NC(=O)c2ccc(-c3cccc(Cl)c3C)o2)cc1
The displacement of the first is lower: -13.3% for the first, 1.7% for the second.

First: Clc1cc2c(cc1CSc1nc3ncccc3[nH]1)OCO2
Second: O=C1OC(c2ccccc2Br)=N/C1=C\c1cc2c(cc1Cl)OCO2
The displacement of the first is lower: -5.8% for the first, 116% for the second.

Compared with `CCOc1cc(C=O)cc(I)c1OCc1ccccc1Cl`, `COc1ccccc1NC(=O)COc1cc(C)c(Cl)c(C)c1` is lower in displacement: 10.5% for the first, -1.6% for the second.

Going from `Cc1cccc(N2C(=O)c3ccc(NC(=O)C(c4ccccc4)c4ccccc4)cc3C2=O)c1C` to `Cc1c(NC(=O)c2ccc3c(c2)C(=O)N(N2C(=O)c4ccccc4C2=O)C3=O)cccc1C(=O)O`, the displacement rises from -64.7% to 1.9%.

First: O=C(Nc1ccc2oc(-c3ccccc3F)nc2c1)C(Cl)(Cl)Cl
Second: O=C(Nc1ccc2nn(-c3ccc(Cl)cc3)nc2c1)c1cccnc1
The displacement of the first is lower: -12.3% for the first, 29.6% for the second.

First: O=C(c1cc(F)c(F)cc1Cl)N1CCN(c2ccc(Cl)cc2[N+](=O)[O-])CC1
Second: CCC(=O)c1ccc(N2CCN(C(=O)c3ccc(Br)cc3)CC2)c(F)c1
The displacement of the first is lower: -8% for the first, -7.2% for the second.

Compared with `O=C(Nc1ccc(N2C(=O)c3ccccc3C2=O)cc1Cl)c1ccc(Cl)cc1Cl`, `Cc1occc1C(=O)Nc1cccc2ccccc12` is lower in displacement: 16.8% for the first, 3.3% for the second.

First: O=C(Nc1c(C(=O)N2CCCCCC2)cnn1-c1ccccc1)c1cccc(F)c1
Second: Cc1ccc(C(=O)Nc2nc(-c3ccccc3)c(C)s2)cc1
The displacement of the first is lower: 0.8% for the first, 4.1% for the second.

Compared with `Cc1ccsc1/C=C(/C#N)c1nc(-c2ccc(Br)cc2)cs1`, `Cc1ccc(/C=C(\C#N)c2nc3ccccc3s2)cc1` is lower in displacement: 132% for the first, 88.3% for the second.

Compared with `CCOC(=O)Oc1ccc2oc(=O)cc(C)c2c1`, `CCN(CC)c1ccc(/C=C2\C(=O)NC(=O)N(c3cc(C)cc(C)c3)C2=O)o1` is lower in displacement: 7.3% for the first, -62.5% for the second.

Going from `Nc1ccc(S(=O)(=O)N2CCCCCC2)cc1` to `CC(NS(=O)(=O)c1ccc(Br)cc1)C1C2CC3CC(C2)CC1C3` (configuration not stated), the displacement rises from 3% to 7.9%.

Compared with `CCCCCCOc1ccc(N2C(=O)CC(N3CCN(Cc4ccc5c(c4)OCO5)CC3)C2=O)cc1` (configuration not stated), `Cc1ccc(OCCOc2ccccc2/C=C2/SC(=S)N(C)C2=O)cc1` is lower in displacement: 27.1% for the first, 3.3% for the second.

Going from `COc1ccc(/C=C2\SC(=S)N(CCS(=O)(=O)O)C2=O)cc1` to `CC(C(=O)O)N1C(=O)/C(=C/c2ccc(C(=O)O)cc2)SC1=S` (configuration not stated), the displacement falls from 3.2% to -1%.

Compared with `COc1ccc(C(=O)/C=C/Nc2cc(Cl)cc(Cl)c2)cc1`, `COc1ccc(C(=O)N/C(=C\c2ccc(Cl)cc2)C(=O)NCc2ccncc2)cc1` is higher in displacement: 3.9% for the first, 14.7% for the second.

Compared with `COc1cccc(C2NC(=O)N(C)C(C)=C2C(=O)OC(C)C)c1OC` (configuration not stated), `COc1ccc(C2C=C(Nc3ccc(C)cc3)C(=O)N2c2ccc(C)cc2)cc1OC` (configuration not stated) is lower in displacement: 7.9% for the first, 7.4% for the second.

First: CCc1cc2c(=O)c(-c3nc4ccccc4s3)coc2cc1OS(C)(=O)=O
Second: Cc1ccc(N(CC(=O)NCc2ccccc2C)S(C)(=O)=O)cc1
The displacement of the first is higher: 4.5% for the first, -2.5% for the second.

Going from `COc1cccc(-n2sc3c(c2=S)-c2cc(C)ccc2NC3(C)C)c1` to `COc1ccc(NC(=O)COc2ccc3ccccc3c2)cc1OC`, the displacement falls from 1.3% to -8.7%.

Compared with `CC(Nc1cc(N2CCN(CCO)CC2)ccc1[N+](=O)[O-])C12CC3CC(CC(C3)C1)C2` (configuration not stated), `CC1CCN(CCOCCOc2cccc3ccccc23)CC1` is lower in displacement: 5% for the first, 0.7% for the second.

First: Cc1nnc(Nc2ccccc2O)c2ccccc12
Second: O=S1(=O)N=C(Nc2cccc(Cl)c2)c2ccccc21
The displacement of the first is lower: -1.6% for the first, 9.5% for the second.

Going from `CCCc1n[nH]c2c1/C(=N\O)CC(C)(C)C2` to `C=CCOC(=O)C1=C(C)NC(C)=C(C(=O)OCC=C)C1c1ccc(O)cc1`, the displacement rises from 2.6% to 9.3%.

Going from `O=C(Nc1ccc(C(=O)O)cc1)/C(=C/c1cccc([N+](=O)[O-])c1)NC(=O)c1ccccc1` to `N#C/C(=C\c1cccc(OCc2ccccc2)c1)C(N)=O`, the displacement rises from 1.7% to 9.1%.

`COc1ccc(C2CC(C(F)(F)F)n3nc(C(=O)Nc4ccc(C(C)O)cc4)c(Cl)c3N2)cc1` (configuration not stated) showed a displacement of 6.2%.
